# Reference: the supplement of paper PMC3334620
# The full ranking holds about 33,000 sequences; the median of “E-score (-0.5 to 0.5)” is about -0.017, and the highest 2% start at about 0.3. This is one part of the list.
# Molecular target: T1, Sut1 (UniProt P53032)
# T1 sequence: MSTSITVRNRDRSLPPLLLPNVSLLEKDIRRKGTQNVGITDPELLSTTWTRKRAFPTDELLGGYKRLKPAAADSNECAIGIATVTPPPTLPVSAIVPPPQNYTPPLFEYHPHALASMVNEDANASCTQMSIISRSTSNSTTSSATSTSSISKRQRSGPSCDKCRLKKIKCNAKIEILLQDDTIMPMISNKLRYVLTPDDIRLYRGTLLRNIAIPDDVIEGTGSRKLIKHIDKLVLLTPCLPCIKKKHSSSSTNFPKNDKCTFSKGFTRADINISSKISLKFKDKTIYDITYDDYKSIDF
# Experiment: PBM E-score (8-mer binding enrichment) (E-score (-0.5 to 0.5)); higher = stronger / more preferred TF binding; most listed sequences are background and not binding sites
# Settings: protein concentration: 200 nM; construct: GST-full length
# Outline: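 GST-tagged yeast TFs (full-length or DNA-binding domain) were made by PURExpress in vitro transcription/translation and applied at about 100-200 nM to universal all-10-mer Agilent arrays. The arrays were made double-stranded by primer extension, on fresh or once-stripped slides. Bound protein was detected with fluorescent anti-GST, and scans were normalised with masliner. Each ungapped eight-base word, pooled with its reverse complement, received an E-score (modified Wilcoxon-Mann-Whitney statistic) from the Universal PBM Analysis Suite.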
row,Sequence,PBM E-score
1,GATGTAGA,-0.0859
2,GGCACCAA,-0.00537
3,ATTCGGAC,0.455
4,CTCAATCA,0.0165
5,CCTGGCCC,-0.0837
6,AGGCACCT,-0.131
7,AATCTGCT,0.0742
8,AGGTTGCC,-0.216
9,CTAAGTAA,0.114
10,ACGTAACG,-0.202
11,AGTGGGTC,-0.134
12,CTCCGTCA,0.369
13,AGCGCAAG,-0.23
14,AAAATGAT,0.342
15,GGTGCCAC,-0.129
16,TAATGATA,0.317
17,CGCTGCGA,-0.153
18,ACGCTCTA,-0.26
19,CTTTCCCA,-0.0281
20,CCGTTACG,0.00488
21,GACGAGTC,-0.0919
22,AGCGTAAC,0.099
23,AAAGTTGG,0.136
24,GAGCGTAA,0.0537
25,AGCCAACT,-0.0881

row,Sequence,PBM E-score
1,ACGCCGAT,-0.0988
2,AACTGATT,0.0393
3,GGAAGACC,0.0221
4,GCAAAGGC,-0.0759
5,CACATAAG,-0.052
6,ATTAGAAA,0.139
7,AGTATACT,0.00364
8,CACCGGGA,-0.0737
9,CCGCCCTA,-0.0727
10,CATTTAGC,-0.032
11,GTAGAAGA,0.0368
12,AATACGAA,0.169
13,CACAACCC,-0.0775
14,AACAGCTA,0.0258
15,GAAGAGAC,0.0374
16,CCATATAA,0.0827
17,AGCGTGCG,-0.0386
18,TAGGGACA,0.0209
19,AAGAAGGG,-0.156
20,GGAAGAAA,0.122
21,GCCAGGAC,-0.227
22,AAAATATA,0.267
23,AGTTTGGA,0.0671
24,ATGCAAGG,-0.129
25,CCCTTTGA,-0.302

row,Sequence,PBM E-score
1,GCAGCCCA,-0.204
2,AAACCTAG,-0.0283
3,GCCGCACA,-0.218
4,ATATAACC,0.0866
5,CTATAAAG,0.235
6,GATTTGCC,0.0865
7,AATCTCCC,-0.268
8,AAGTTCAA,0.0979
9,AATCAGGT,0.207
10,TCAACTCA,-0.0289
11,GAGCCAAA,-0.0398
12,AGCTACCA,-0.0375
13,CAATTAAG,0.233
14,AAACAGGT,-0.0573
15,AGCTGTTC,-0.187
16,CTGTGGCC,-0.237
17,GACCGTGA,-0.0674
18,CACCCATC,-0.101
19,AAAGCAAA,0.256
20,ATTGTGCA,0.124
21,CTCTCAAG,0.0127
22,GAAGTCAC,-0.241
23,AGCTCTTC,0.0317
24,CTCCCCCC,-0.31
25,TATTTACA,0.143

row,Sequence,PBM E-score
1,ATCGACTG,0.0191
2,CCTTGTAG,-0.179
3,ATTCGGAG,0.432
4,GGGCCCGA,-0.149
5,CATAATGA,0.237
6,CGATGGTC,-0.158
7,CAGCAACA,0.193
8,CCGGGCAC,0.14
9,AGGCACCC,-0.343
10,ATCAATCG,0.108
11,ACATATTG,0.0485
12,AAGGCAGC,-0.0891
13,CCAGAAAG,0.165
14,CACCCGGG,-0.197
15,CAAGAGTG,-0.0639
16,AGGTGATA,-0.0925
17,AGCTTAGA,0.0671
18,CGTCAACA,-0.158
19,AGCTTACT,0.00715
20,TACGAAGA,0.0906
21,GTGCAAAC,0.049
22,GGAAGGCC,0.0275
23,CATATGCA,-0.0814
24,CCTGCTTC,-0.244
25,GTGTAGCA,-0.35

row,Sequence,PBM E-score
1,ACCCAAAG,-0.147
2,CCTGTCCG,-0.106
3,CGGGAGCC,-0.17
4,ATTCGTTG,-0.0108
5,GATGTAAC,0.0929
6,GATGGGAC,-0.225
7,ATGGTCTG,-0.0811
8,CATTCGAA,0.0869
9,GCTTAATA,0.0101
10,ATGCCGTC,-0.23
11,AAACGGGC,-0.109
12,TCACTCAA,0.0178
13,AAGTATGC,-0.0954
14,ATATTTCG,0.137
15,GCTTACCC,-0.193
16,AGCTAAGC,-0.255
17,AACGTAGA,0.00436
18,CTCTTGCC,-0.208
19,ATCCGCAA,-0.0823
20,AAAGCTCC,0.0815
21,AACACTCC,0.256
22,CTCCGACC,0.391
23,AACGGGTG,-0.0363
24,CCCCGGCG,-0.00882
25,ACCCGCTG,-0.271

row,Sequence,PBM E-score
1,CTTATAAG,0.178
2,GAATGAAA,0.181
3,CGGTGTCA,-0.115
4,ACTAGATG,-0.0398
5,CTTTTCGC,0.127
6,TCAAAACA,0.213
7,CCTGCCAC,-0.162
8,TCCGACAA,0.337
9,CGGGTGAG,-0.0499
10,TATAAGAA,0.153
11,ATGCTCTA,-0.102
12,AATTTGTC,0.0669
13,CGAGAACA,-0.0245
14,GATATGCC,-0.245
15,CAGATAGA,-0.164
16,CCGAGCAA,0.047
17,CCGCACCA,-0.0881
18,CCGTGGTC,-0.206
19,GGAAGCCA,-0.12
20,CGTAGTGC,-0.117
21,CCGAAACG,0.198
22,ATAGGCTC,0.0537
23,CCAAGAGC,-0.228
24,CCGGGAGA,0.126
25,GTCTTAAC,-0.0591

row,Sequence,PBM E-score
1,CAATTTAC,0.185
2,CCCCAGTA,-0.109
3,AGTGATCC,-0.0238
4,TAAACTAA,0.323
5,CGAAGAAA,0.297
6,GCCCACGC,-0.281
7,ACGGGTGA,-0.0761
8,CGTCTTCA,-0.00678
9,AAATGTAC,0.135
10,ACGAGTCA,-0.254
11,CATAATTC,0.0494
12,TCACACCA,0.0501
13,ACACTATC,0.0365
14,GACGACTA,-0.0927
15,AGCCGGTC,-0.166
16,CCTCTCCA,-0.307
17,CAGAATGC,-0.126
18,AAATTCCG,0.337
19,TGCCGGAA,0.188
20,GATCCACA,-0.0356
21,GCTGTTTA,0.19
22,GCCCATTA,-0.269
